# Measured values reported in PMC6919601, “Identification of Plasmodium dipeptidyl aminopeptidase allosteric inhibitors by high throughput screening” (PLoS ONE, 2019).
# Values joined by “and” are separate entries in the source; they are usually repeats but may differ in a detail not shown here. Equal entries are not always repeated. Among all 110,000 compounds or so, about 230 (0.21%) showed an effect of 50% or more. Some of the results follow.
# Target: DPAP1 (Plasmodium falciparum, UniProt Q8IIJ9)
# Sequence (Q8IIJ9 whole entry, looked up): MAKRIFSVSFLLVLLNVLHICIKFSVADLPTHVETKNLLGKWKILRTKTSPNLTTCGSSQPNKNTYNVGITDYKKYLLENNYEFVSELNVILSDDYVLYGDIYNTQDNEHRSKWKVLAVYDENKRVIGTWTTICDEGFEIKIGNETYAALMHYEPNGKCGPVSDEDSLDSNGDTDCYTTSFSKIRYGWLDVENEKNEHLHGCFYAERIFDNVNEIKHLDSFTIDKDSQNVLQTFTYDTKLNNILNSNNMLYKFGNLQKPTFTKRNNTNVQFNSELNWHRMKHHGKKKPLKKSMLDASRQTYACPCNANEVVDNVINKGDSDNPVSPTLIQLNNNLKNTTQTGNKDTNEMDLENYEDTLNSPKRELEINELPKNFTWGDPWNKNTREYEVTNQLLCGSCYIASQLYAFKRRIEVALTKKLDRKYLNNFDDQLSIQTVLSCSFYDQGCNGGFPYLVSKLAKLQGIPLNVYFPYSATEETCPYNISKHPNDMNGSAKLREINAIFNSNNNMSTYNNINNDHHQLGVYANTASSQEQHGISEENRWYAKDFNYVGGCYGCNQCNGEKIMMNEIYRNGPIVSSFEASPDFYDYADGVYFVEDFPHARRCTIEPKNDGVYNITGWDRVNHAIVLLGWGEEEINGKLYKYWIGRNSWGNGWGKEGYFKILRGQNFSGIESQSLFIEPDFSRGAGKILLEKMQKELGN
# Experiment: primary screen, percent inhibition; read by cleavage of a fluorogenic dipeptide substrate; higher = more effect of the substance
# Set-up: species or system P. falciparum D10 trophozoite lysates; single well
# 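Also: 30 min substrate incubation versus DMSO and 10 µM JCP410 controls.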
row,SMILES,% Inhibition @ 10 uM
1,CN(C(=O)CN1C(=O)CN=C(c2ccccc2)c2c1sc1c2CCCC1)C1CCCCC1,-5.37%
2,CCOc1cc(C2c3c(oc4ccc(F)cc4c3=O)C(=O)N2c2nnc(CC(C)C)s2)ccc1O (stereo not drawn),32.6%
3,Clc1ccc(Sc2ncnc3sc4c(c23)CCCC4)cc1,-1.29%
4,CCC1C(=O)N=C(SCC(=O)Nc2ccccn2)NC1=O (stereo not drawn),-7.34%
5,CCC(C)Nc1sc(S(C)(=O)=O)nc1S(=O)(=O)c1ccc(Cl)cc1 (stereo not drawn),-0.522%
6,CCOC(=O)C1=C(C)N=c2s/c(=C\c3ccccc3)c(=O)n2C1c1ccc(N(C)C)cc1 (stereo not drawn),3.61%
7,Cc1[nH]nc2c1C(c1cc(Cn3cnc4ccccc43)cs1)C(C#N)=C(N)O2 (stereo not drawn),-0.0678%
8,Cc1cc(=O)n2ccc(CN3CCCCC3)c(O)c2n1,2.38% and 5.2%
9,CC1(C)OC(=O)C(/C=N/CC(=O)O)=C(O)O1,-5.15%
10,CCOc1ccc2nc(NC(=O)c3c(F)cccc3F)sc2c1,0.528%
11,CCOC(=O)c1cc(S(=O)(=O)NCCc2sccc2C)cn1C,3.92%
12,Cc1ccc(NC(=O)c2ccccc2NC(=O)C2CC=CCC2C(=O)O)cc1 (stereo not drawn),-0.95%
13,CC(C)C1C(C#N)=C(N)OC2=C1C(=O)CC(C)(C)C2 (stereo not drawn),-4.33%
14,COc1ccc(C2=N/C(=C\c3cc(Br)cs3)C(=O)O2)cc1OC,-0.48%
15,COc1ccc(C(=O)N2CCN(c3ccccc3)CC2)cc1,-1.62%
16,COCCNC(=O)c1ccc(CS(=O)Cc2ccc(C)cc2)o1 (stereo not drawn),2.03%
17,Cc1nn(C)cc1C(=O)N1CCN(C(=O)c2ccco2)CC1,-3.75%
18,CC1=C(C(=O)OCc2ccccc2)C(c2cccc(Br)c2)NC(=O)N1 (stereo not drawn),1.38%
19,COc1cccc(OC)c1C(=O)Nc1cccc(C)c1,-1.77%
20,CN(Cc1ccccc1)Cc1nc(=O)c2ccccc2n1C,-2.77%
21,CC12CC3(C)CC(N)(C1)CC(C(=O)O)(C2)C3,2.36%
22,Cn1c(=O)c2nc(-c3ccccc3)c(O)nc2n(C)c1=O,7.14%
23,COc1cc(C2NC(C(=O)O)CS2)ccc1OCc1ccccc1C (stereo not drawn),2.16%
24,NC(=O)C1CCN(CC2CC=CCC2)CC1 (stereo not drawn),-0.603%
25,O=C(O)CCS(=O)(=O)Cc1cccc(Cl)c1,-1.99%
26,CCOc1nc(C)c(/C=C/C(=O)O)c(OCC)n1,-1.2%

row,SMILES,% Inhibition @ 10 uM
1,COc1ccc(N(C(C)C(=O)NCc2ccc(Cl)cc2Cl)S(C)(=O)=O)cc1 (stereo not drawn),-0.992%
2,O=C(O)C1CC=CCC1C(=O)Nc1ccc(Cl)c(Cl)c1 (stereo not drawn),-5.49%
3,O=C1CN(C(=O)/C=C/c2ccccc2)CCN1,-0.386%
4,CC(C)(C)SCCNC(=O)c1ccc(C2SCC(=O)N2CCc2ccccc2)cc1 (stereo not drawn),-5.1%
5,CC1=C(C(=O)Nc2ccc(C)cc2)C(c2cccs2)NC(=O)N1C (stereo not drawn),-2.35%
6,COC(=O)c1ccc(CO)nc1,-1.77%
7,COc1ccc(-c2nc3s/c(=C\c4ccc(C)o4)c(=O)n3n2)cc1,0.487%
8,CCOC(=O)C1=C(C)N=c2s/c(=C\c3ccccc3Cl)c(=O)n2C1c1ccc(N(C)C)cc1 (stereo not drawn),1.27%
9,Cc1c2cnn(CC(=O)NCCN3CCOCC3)c(=O)c2c(C)n1Cc1ccccc1Cl,1.22%
10,CCC(Cc1ccccc1)NCc1c(C(=O)O)n(Cc2ccccc2)c2ccccc12 (stereo not drawn),0.0662%
11,CCCCn1cnc2cc(NCc3ccncc3)ccc21,-4.49%
12,CCOC(=O)N1CCN(C(=O)c2cc(-c3cccs3)[nH]n2)CC1,-3.53%
13,COc1ccc2nc(NC(=O)CCc3nc(-c4ccccc4F)no3)sc2c1,5.1%
14,O=C(C1=C(O)C(=O)N(c2ccc(O)cc2)C1c1cccc(F)c1)c1ccccc1 (stereo not drawn),1.64%
15,COC(=O)c1ccc(-n2c(C)cc(C(=O)CN3CCC(C)CC3)c2C)cc1,-2.78%
16,COCCN1C(=O)C(O)=C(C(=O)c2ccc(OC)cc2C)C1c1ccc(C(C)(C)C)cc1 (stereo not drawn),3.3%
17,CCOc1ccccc1C1C2=C(O)CCCC2=Nc2nc3ccccc3n21 (stereo not drawn),1.73%
18,O=C(NC(Cc1ccccc1)C(=O)O)/C(=C/c1ccc2c(c1)OCO2)NC(=O)c1ccco1 (stereo not drawn),2.3%
19,N#CCSc1nc(-c2ccccc2)nc2ccc(Cl)cc12,-5.23%
20,CCN1CCN(c2ccc(Nc3nc(C)nc4cc(Cl)ccc34)cc2)CC1,1.54%
21,Cc1ccc(Nc2nc(-c3ccc(F)cc3)cs2)cc1Cl,-5.65%
22,CCOc1ccc2nc(NC(=O)Cn3cccc3)sc2c1,-7.99%
23,FC(F)(F)c1nc2ccccc2n1Cc1cc(Cl)cc2c1OCOC2,-0.403%
24,C=CCSc1ncc(Cl)c(C(=O)Nc2sc3c(c2C(N)=O)CCCC3)n1,-0.946%
25,O=S(=O)(c1ccc(Cl)cc1)c1nc(-c2cccs2)oc1NC1CC1,2.02%
26,CC(C)C[C@H](NC(=O)c1ccc(Br)cc1Cl)C(=O)NCC#N,8.48%

row,SMILES,% Inhibition @ 10 uM
1,COC(=O)c1ccc(-c2ccco2)n1CC(=O)N1CCC(Cc2ccccc2)CC1,-5.37%
2,Cc1ccc(C(=O)Nc2sc3c(c2C(N)=O)CCCCCC3)cc1,2.22%
3,O=C(COCc1cc(-c2ccc3c(c2)OCO3)on1)N1CCN(c2ccccn2)CC1,0.56%
4,CCOc1ccccc1C(=O)Nc1ccccc1CC,3.09%
5,COc1ccc(CC(=O)Nc2cccc(Cl)c2Cl)cc1,0.317%
6,CCOC(=O)c1[nH]c2ccc(OCc3ccccc3)cc2c1C,5.98%
7,O=S(=O)(c1ccc(-c2cc(C(F)(F)F)no2)s1)N1CC=C(c2ccccc2)CC1,-0.166%
8,Cc1nc([N+](=O)[O-])c(NCCO)n1Cc1ccccc1,-3.77%
9,CCOc1ccc(C(=O)Nc2cccnc2)cc1,3.65%
10,CNC(=O)c1ccc(CSc2nc3cccnc3n2Cc2ccc(OC)cc2)cc1,13.8%
11,CCc1ccc(OC(C)C(=O)N(Cc2ccc(C)o2)C2CCS(=O)(=O)C2)cc1 (stereo not drawn),-1.11%
12,NC(=O)C1CCN(C(=O)CCCN2C(=O)C(c3ccccc3)Oc3cccnc32)CC1 (stereo not drawn),-5.07%
13,COCc1c(C#N)c(S)nc(C)c1[N+](=O)[O-],30.8%
14,Cc1ccc(S(=O)(=O)Nc2ccc(NS(C)(=O)=O)cc2)cc1,-7.08%
15,Cc1nc2sccn2c1-c1csc(Nc2ccc(C(=O)O)cc2)n1,-2.89%
16,O=C(COc1ccccc1)Nc1ccc(Cl)cc1,-2.25%
17,Cc1ccccc1CNC(=O)C1CCCN(c2nnc(N3CCCC3=O)s2)C1 (stereo not drawn),0.623%
18,CC1CCN(c2nc3ccc(C(=O)NCCN4CCOCC4)cc3s2)CC1,5.73%
19,CC1CCc2c(C(=O)NCCCN3CCOCC3)csc2C1 (stereo not drawn),-3.21%
20,COC(=O)NC(c1ccccc1)c1ccccc1,-3.24%
21,O=C(NCCSCc1ccco1)c1ccc(CSc2ccccc2)cc1,-3.14%
22,Cc1ccc(Cn2c(=O)c3ccccc3n3c(CCC(=O)NCCC(C)C)nnc23)cc1,4.16%
23,CCc1oc(C(=O)OC)cc1CNC(N)=O,0.883%
24,Cc1cccc(N2CCN(c3ccc(NC(=O)C4CC=CCC4C(=O)O)cc3)CC2)c1 (stereo not drawn),-3.43%
25,CN(C(=O)c1ccc(CNS(=O)(=O)c2ccc(F)cc2)cc1)C1CCCCC1,0.718%
26,COc1cc(C2CC(=O)NC3=C2C(=O)CC(C)(C)C3)cc(OC)c1O (stereo not drawn),12.4%

row,SMILES,% Inhibition @ 10 uM
1,COC(=O)C1=C(C)OC(N)=C(C#N)C1c1cc(CSc2nnc(N)s2)c(C)s1 (stereo not drawn),5.93%
2,CCOc1ccccc1/C=c1\sc2nnc(-c3cccc(C)c3)n2c1=O,-7.71%
3,O=C(Cn1cc2c(n1)CCCC2)NCCCc1ccccc1,0.137%
4,C=CCSc1nnc(COc2ccccc2)o1,-4.91%
5,O=C(CC1Sc2ccc(C(F)(F)F)cc2NC1=O)Nc1ccc(F)cc1 (stereo not drawn),-5.34%
6,CSc1ccc(CCNCc2c(C(=O)O)c(C)n(Cc3cccc(C)c3)c2C)cc1,-7.6%
7,Cc1cccnc1NC(=O)CCc1nc2cccnc2n1Cc1cccs1,-9.07%
8,COc1cc(OC)cc(C(=O)NC2CCCCCCC2)c1,-2.58%
9,CCC1CCCCN1C(=O)Cn1c(SCc2ccccc2F)nc2cccnc21 (stereo not drawn),-4.73%
10,CC1CN(C2CCCCC2)C(C)CC1=O (stereo not drawn),-8.76%
11,CC(C)CC1CC2C(O1)c1ccccc1OC2(C)C (stereo not drawn),4.82%
12,Cc1ccc(NC(=O)COc2ccc(C)cc2Br)cc1,-5.3%
13,CCN1CCN(Cc2cccc(Cl)c2Cl)CC1,0.847%
14,O=C(O)c1cccc2cc[nH]c12,2.79%
15,O=C(c1ccc(C(F)(F)F)cc1)N1CCN(c2ccc(Cl)cc2)CC1,1.86%
16,CCCCN(C)S(=O)(=O)c1c(C)[nH]c(C)c1C(=O)OCC,0.882%
17,CCC(C)C(NC(=O)CN)C(=O)NC(CCc1ccccc1)C(=O)CO (stereo not drawn),4.54%
18,COc1cc2c(cc1OC)CN(Cc1ccc(C)cc1C)CC2,-2.81%
19,CCOc1ccc(/C=C2\CN(C)CC3=C2OC(N)=C(C#N)C3c2ccc(OCC)cc2)cc1 (stereo not drawn),-0.759%
20,Oc1ccc(-c2csc(NCc3ccco3)n2)cc1,-3.5%
21,Cc1cc(O)nc(SCC(=O)c2ccc(O)c(O)c2)n1,0.812%
22,O=C(Nc1cccnc1)c1c(O)nc2c(c1O)CCCC2,-3.93%
23,CCOc1ccc(N2C(=O)CC(NCc3ccc(Cl)c(Cl)c3)C2=O)cc1 (stereo not drawn),8.6%
24,CC(C)c1ccc(/C=C2\C(=N)N3N=C(S(C)(=O)=O)SC3=NC2=O)cc1,1.85%
